In publication PMC5696382 one finds binding data, which are given here for 5 molecules.

Protein sequences, listed by entry. Tags and fused reporters are not part of them. Lines headed by an entry give the natural chain unless they say otherwise; changes in a name come on top. Chains listed by the source or under a name are the forms on record and can include a tag or linker. Residues count along the entry.
UniProt Q13586: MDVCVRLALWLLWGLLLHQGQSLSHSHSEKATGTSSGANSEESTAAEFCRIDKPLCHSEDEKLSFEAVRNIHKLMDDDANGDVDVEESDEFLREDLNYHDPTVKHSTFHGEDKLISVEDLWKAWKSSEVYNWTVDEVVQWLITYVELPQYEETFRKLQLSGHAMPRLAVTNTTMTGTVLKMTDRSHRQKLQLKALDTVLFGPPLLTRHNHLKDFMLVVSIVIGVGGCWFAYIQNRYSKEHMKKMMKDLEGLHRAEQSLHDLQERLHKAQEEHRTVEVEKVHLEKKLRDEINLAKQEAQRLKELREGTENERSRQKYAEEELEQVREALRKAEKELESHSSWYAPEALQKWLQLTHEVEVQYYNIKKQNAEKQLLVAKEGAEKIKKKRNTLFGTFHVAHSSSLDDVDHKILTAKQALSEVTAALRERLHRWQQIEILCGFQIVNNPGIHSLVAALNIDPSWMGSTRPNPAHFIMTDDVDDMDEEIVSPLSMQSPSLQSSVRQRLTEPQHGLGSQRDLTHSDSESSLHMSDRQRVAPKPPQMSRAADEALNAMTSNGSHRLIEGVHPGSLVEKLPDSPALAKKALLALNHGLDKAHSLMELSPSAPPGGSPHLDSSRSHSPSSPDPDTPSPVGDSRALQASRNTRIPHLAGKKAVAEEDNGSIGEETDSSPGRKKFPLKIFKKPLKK
STIM1-ΔCt, GFP-tagged: residues 23-237 of Q13586
STIM1-CAD, GFP-tagged: residues 342-448 of Q13586
STIM1-D76A, GFP-tagged (constitutively active STIM1) (Q13586, form named): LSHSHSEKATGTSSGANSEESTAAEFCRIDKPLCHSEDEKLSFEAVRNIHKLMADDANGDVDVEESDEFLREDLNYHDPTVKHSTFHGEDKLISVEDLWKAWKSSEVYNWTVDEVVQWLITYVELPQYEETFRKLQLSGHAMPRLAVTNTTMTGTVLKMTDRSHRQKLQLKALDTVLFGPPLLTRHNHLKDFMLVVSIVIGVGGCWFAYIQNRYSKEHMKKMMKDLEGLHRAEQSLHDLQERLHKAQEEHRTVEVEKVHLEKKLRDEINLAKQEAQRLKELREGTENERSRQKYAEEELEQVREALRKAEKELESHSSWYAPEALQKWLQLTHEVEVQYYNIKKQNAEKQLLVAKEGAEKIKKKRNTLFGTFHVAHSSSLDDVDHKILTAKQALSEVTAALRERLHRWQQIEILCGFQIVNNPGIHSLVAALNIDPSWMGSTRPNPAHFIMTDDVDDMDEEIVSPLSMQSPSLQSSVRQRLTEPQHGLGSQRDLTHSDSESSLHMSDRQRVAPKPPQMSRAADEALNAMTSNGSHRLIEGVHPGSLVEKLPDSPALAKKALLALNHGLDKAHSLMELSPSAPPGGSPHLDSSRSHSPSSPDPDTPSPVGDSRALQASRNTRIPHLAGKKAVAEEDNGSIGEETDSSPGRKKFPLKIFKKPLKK
UniProt P70302, residues 23-685: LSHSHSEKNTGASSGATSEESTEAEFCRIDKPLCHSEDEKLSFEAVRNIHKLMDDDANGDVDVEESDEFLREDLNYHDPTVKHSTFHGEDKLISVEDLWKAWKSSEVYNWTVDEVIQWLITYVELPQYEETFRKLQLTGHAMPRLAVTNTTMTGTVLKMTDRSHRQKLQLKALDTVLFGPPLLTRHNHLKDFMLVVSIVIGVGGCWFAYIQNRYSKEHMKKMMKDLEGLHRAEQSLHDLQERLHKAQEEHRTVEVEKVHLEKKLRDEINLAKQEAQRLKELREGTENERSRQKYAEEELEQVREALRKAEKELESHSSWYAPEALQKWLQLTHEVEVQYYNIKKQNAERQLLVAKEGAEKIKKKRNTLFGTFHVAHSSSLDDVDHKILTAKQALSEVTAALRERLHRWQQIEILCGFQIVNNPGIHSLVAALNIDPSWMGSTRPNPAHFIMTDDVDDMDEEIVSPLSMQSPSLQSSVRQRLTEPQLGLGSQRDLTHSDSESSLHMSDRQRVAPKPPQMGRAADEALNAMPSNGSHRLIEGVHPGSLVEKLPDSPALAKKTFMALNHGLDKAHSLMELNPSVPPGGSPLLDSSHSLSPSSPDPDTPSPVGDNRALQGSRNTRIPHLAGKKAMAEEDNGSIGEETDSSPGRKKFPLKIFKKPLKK

Positions count from the first letter of the chain named. These are yes or no findings as the source states them, for the method shown. In cells and extracts the contact can be indirect. Some results given as binding are weak or reduced against the parent protein; the word gives no strength. For some assays here: Sequences can lack the tags named with a protein.

In assay [1] the target is T1, UNC93B1 3d, FLAG-tagged (His 412 to Arg) (mouse) (UniProt Q8VCW4).
T1 sequence: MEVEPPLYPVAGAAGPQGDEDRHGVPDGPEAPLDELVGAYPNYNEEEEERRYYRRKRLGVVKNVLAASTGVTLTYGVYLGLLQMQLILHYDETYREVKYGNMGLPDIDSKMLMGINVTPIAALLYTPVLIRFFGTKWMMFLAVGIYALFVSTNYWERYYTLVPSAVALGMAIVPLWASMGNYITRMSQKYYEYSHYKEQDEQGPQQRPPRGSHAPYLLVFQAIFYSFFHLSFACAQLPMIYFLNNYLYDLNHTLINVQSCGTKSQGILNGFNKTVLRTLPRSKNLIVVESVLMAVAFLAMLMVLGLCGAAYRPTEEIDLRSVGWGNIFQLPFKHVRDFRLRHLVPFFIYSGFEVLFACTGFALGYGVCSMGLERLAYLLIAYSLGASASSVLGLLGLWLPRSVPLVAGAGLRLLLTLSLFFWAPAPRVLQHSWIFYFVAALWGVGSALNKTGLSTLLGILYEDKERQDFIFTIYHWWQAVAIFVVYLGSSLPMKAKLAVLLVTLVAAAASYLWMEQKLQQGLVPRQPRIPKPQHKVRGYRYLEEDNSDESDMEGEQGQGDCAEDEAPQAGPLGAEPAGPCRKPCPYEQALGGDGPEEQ
As to the kind of experiment: co-IP; murine fibroblasts co-transfected with Stim1-GFP and FLAG-tagged UNC93B1 (WT or 3d); immunoprecipitation of UNC93B1-tagged protein (protein G beads coated with anti-FLAG antibody); Supplementary Fig. 4a.

Assay [2] addresses T2, UNC93B1 WT, FLAG-tagged (uncoordinated 93 homolog B1) (mouse) (UniProt Q8VCW4).
T2 sequence: T1 sequence with R412H
Described as above.

Another assay concerns the target STIM1-CAD, GFP-tagged (UniProt Q13586). As to the kind of experiment: co-IP; murine fibroblasts co-transfected with GFP-tagged STIM1 forms and FLAG-tagged UNC93B1 (WT or 3d); 4 mg of cell lysate o/n with GFP-Trap_MA beads (STIM1 as bait); immunoblot with anti-GFP and anti-FLAG. On the technique in general: Immunoblotting shows a protein as a band on a membrane.
Assay [3] addresses STIM1-D76A, GFP-tagged (constitutively active STIM1) (UniProt Q13586). The assay is described as above.
Assay [4] addresses STIM1-WT-GFP-tagged (stromal interacting protein 1) (UniProt Q13586). The description is as above.
In the next assay the target is STIM1-ΔCt, GFP-tagged (UniProt Q13586). Described as above.
Assay [5] deals with STIM1-WT-GFP expressed in BM-DCs (UniProt Q13586). As to the kind of experiment: proximity ligation; Duolink in fixed, permeabilised WT or 3d/3d DCs transfected with GFP-tagged STIM1 (WT or D76A); anti-GFP and anti-UNC93B1 antibodies; steady state and after 60 min of phagocytosis of 3 μm beads; confocal microscopy.
For assay [6], the target named is STIM1, endogenous in BM-DCs (mouse (endogenous in BM-DCs)) (UniProt P70302). As to the kind of experiment: co-IP; endogenous proteins in BM-DCs; lysis in 50 mM Tris-HCl pH 7.4, 150 mM NaCl, 5 mM EDTA, 1% NP-40; protein G beads coated with anti-STIM1 antibody; UNC93B1 detected with anti-UNC93B1.

Regarding “STIM1-WT-GFP-tagged (stromal interacting protein 1) (from UniProt Q13586 23-685)”, the binding entry in assay [1] and in assay [2] was “binds” in each case.

B1: UNC93B1 WT, FLAG-tagged (uncoordinated 93 homolog B1) (protein, UniProt Q8VCW4 1-598)
chain: T1 sequence with R412H
As to B1, the binding result with STIM1-CAD, GFP-tagged is listed as “no binding”; in assay [3], “no binding”; in assay [4], “binds”; in the assay with STIM1-ΔCt, GFP-tagged it was “binds”.

B2: UNC93B1 3d, endogenous in 3d/3d BM-DCs (protein, UniProt Q8VCW4 1-598)
chain: T1 sequence
Consider B2, for which the binding result in assay [5] is “binds”.

B3: UNC93B1, endogenous in WT BM-DCs (protein, UniProt Q8VCW4 1-598)
chain: T1 sequence with R412H
For B3, the binding result in assay [6] and in assay [5] was “binds” in each case.

B4: UNC93B1 3d, FLAG-tagged (His 412 to Arg) (protein, UniProt Q8VCW4 1-598)
chain: T1 sequence
For B4, the binding result in assay [3] is “no binding”; in assay [4] it was “binds”.
